# Results reported in PubChem BioAssay AID1347417 (National Center for Advancing Translational Sciences (NCATS), 2020).
# In all, about 120,000 compounds went through this assay and about 5,300 (4.4%) were called active. The inconclusive results got no clear call from the source; some entries with a clear call stand among them for comparison. Calls come from the whole dose curve; as a rule, active = well fitted inhibition curve with a large enough effect; inconclusive = small, poorly fitted or top-dose-only effect; inactive = no such curve, though single readings can be large or run the other way. Where the call is inconclusive, the potency comes from a doubtful curve fit.
# Assay: qHTS Primary assay for Inhibitors of Plasmodium falciparum Dd2 growth in vitro; note: nearly all actives have a fitted effect of over 65% in size;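 for activity, negative = inhibition: plate controls were DMSO vehicle for no effect and reference drug for full effect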
# Conditions: P. falciparum Dd2 growth, SYBR Green, 72 h; activity, negative = inhibition: at 28.9 µM (top of the series) unless noted; series mostly up to 28.9 µM
# Outline: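 Readout: SYBR Green fluorescence, 485 nm excitation, 535 nm emission, after ~16 h lysis at 37C. Before that, Dd2-infected red cells (2.5% hematocrit) grew 72 h with compound, 29 uM top final concentration.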
# Potency is the fitted concentration of half-maximal effect; tags give direction and shape of the fitted curve.
SMILES,Potency,outcome,"activity, negative = inhibition"
COC[C@@]12CC[C@@H](N3CCOCC3)C[C@H]1CCN(Cc1cnc(N(C)C)nc1)C2,inactive,,
COc1ccc(OC)c(NC(=O)C2CCN(c3cnc4nccnc4c3)CC2)c1,"inconclusive: 0.0708 µM [inhibitor, single point]",,
COc1ccc(NC(=O)c2cccn2-c2nnc(N3CCCCC3)s2)cc1,"inconclusive: 15.8 µM [inhibitor, single point]",,
Cc1noc(C)c1CN1CCNc2cc(Nc3ccccc3)ncc2C1,"inconclusive: 10 µM [inhibitor, partial curve, poor fit]",,
CCCCCNc1ncnc2c1CN(C1CCCNC1)C(=O)CN2C (stereo not drawn),inactive,,
O=C1COc2ccc(NCc3cccs3)nc2CN1Cc1ccc(F)cc1,inactive,,
O=C(NC1CC1)c1ccc(CC2CCN(C(=O)c3ccc4ccccc4n3)CC2)cc1,active: 2 µM,,
CCC(=O)N1CCc2cc(Br)cc(S(=O)(=O)N3CCCC(C(=O)N(C)c4ccc(Br)cc4)C3)c21 (stereo not drawn),active: 8.91 µM,,
Cn1cccc1CN1CCCC(COc2ccccc2C(=O)N2CCCCC2)C1 (stereo not drawn),inactive,,
COCCOc1cc(=O)n2c(c1C(=O)NCc1ccc(OC)cc1)CCOCC2,"inconclusive: 2 µM [inhibitor, full curve]",,
Cc1cc(C)c2c(CC(=O)N(Cc3ccccc3)C3CCS(=O)(=O)C3)coc2c1 (stereo not drawn),"inconclusive: 7.94 µM [inhibitor, partial curve, poor fit]",,
O=C(NCc1cc(F)cc(F)c1)c1nc(-c2ccc(F)cc2)c2ccccn12,"inconclusive: 17.8 µM [inhibitor, single point]",,
COc1cccc(C(=O)Nc2cc3c(cc2C(=O)c2ccc(C)cc2)OCCO3)c1,inactive,,
COc1nccnc1NC1CCN(C(=O)c2ccccc2C)CC1,,inactive [at 5.79 µM],
O=C1NC(=NC2CCCCC2)C2(CCN(Cc3ccc(F)cc3)CC2)N1c1cccnc1,inactive,,
COc1ccc(CN2CC(Oc3ccc(F)c(F)c3)C2)cc1,"inconclusive: 11.2 µM [inhibitor, single point]",,
COc1ccc(N2CCN(C(=O)C3(c4ccc(NC(=O)C(C)C)cc4)CCC3)CC2)cc1,"inconclusive: 2.82 µM [inhibitor, partial curve, poor fit]",,
O=S(=O)(c1ccccc1Cl)N1CC(c2nc(Cc3ccccc3)no2)C1,"inconclusive: 20 µM [inhibitor, single point]",,
COc1ccc2c(c1)CC(C(=O)NCCCN1CCN(c3ccc(F)cc3)CC1)CO2 (stereo not drawn),"inconclusive: 12.6 µM [inhibitor, single point]",,
Cc1ccc(OCC(=O)N2CCC3(CC2)CC(OCC2CC2)CCO3)cc1 (stereo not drawn),"inconclusive: 7.08 µM [inhibitor, partial curve, poor fit]",,
CCOC(=O)C1CCCN(c2nc3c(S(=O)(=O)c4ccc(C)c(C)c4)nnn3c3ccc(Cl)cc23)C1 (stereo not drawn),"inconclusive: 10 µM [inhibitor, partial curve, poor fit]",,
Cc1nn(C)c(C)c1CCC(=O)N1CCC(Cc2noc(C3CCOCC3)n2)C1 (stereo not drawn),inactive,,
COc1ccc(S(=O)(=O)NC[C@H]2C[C@@H]3CCN2C[C@@H]3CN2CCC(Cc3ccccc3)CC2)cc1,"inconclusive: 4.47 µM [inhibitor, partial curve, poor fit]",,

SMILES,Potency,outcome,"activity, negative = inhibition"
CSCCc1nc(Cn2cccnc2=O)n(-c2ccccc2C(=O)O)n1,inactive,,
O=C(Nc1ccc(-c2nnc3n2CCCC3)cc1)Nc1cccc(Cl)c1,inactive,,
C[C@H]1[C@@H]2[C@H]3OC(=O)[C@@H](C)[C@@H]3CC[C@@]2(C)CC[C@@H]1NC(=O)C1CCCCC1,inactive,,
COc1ccc(Nc2cc(C(=O)NCc3ccccc3OC)c3ccccc3n2)cc1,"inconclusive: 17.8 µM [inhibitor, partial curve, poor fit]",,
Cc1cc(OCC(=O)N(Cc2sccc2C)C2CCS(=O)(=O)C2)ccc1Cl (stereo not drawn),inactive,,
CCOC(=O)C1CCN(C(=O)c2cc(Cn3ccnc3C(C)C)[nH]n2)CC1,"inconclusive: 17.8 µM [inhibitor, partial curve, poor fit]",,
Cc1cc(C)c2c(CC(=O)Nc3c(C(=O)Nc4ccc(Cl)cc4)oc4ccccc34)coc2c1,"inconclusive: 14.1 µM [inhibitor, partial curve, poor fit]",,
CCc1cccc(C)c1NC(=O)CSc1nnc(CC)n2c1cc1occc12,"inconclusive: 11.2 µM [inhibitor, single point]",,
COCCNC(=O)c1cc(C2CC2)nc2c1c(C1CCCN1)nn2-c1ccccc1 (stereo not drawn),active: 11.2 µM,,
COc1ccc(N2CCN(c3oc(/C=C/c4cc(OC)c(OC)c(OC)c4)nc3C#N)CC2)cc1,"inconclusive: 1.12 µM [inhibitor, full curve]",,
COc1cc(C(=O)Nc2ccc3oc(-c4ccc(C)c(Br)c4)nc3c2)cc(OC)c1OC,"inconclusive: 17.8 µM [inhibitor, single point]",,
COc1ccccc1-c1cn2c(n1)CO[C@@H](CNC1CCOCC1)C2,"inconclusive: 11.2 µM [inhibitor, partial curve]",,
COc1ccc(F)cc1C(=O)N1CCC2(CC1)CNC(C(=O)O)C2 (stereo not drawn),inactive,,
CCOC(=O)N1CCc2c(sc3c2c(=O)n(CCc2ccccc2)c(=O)n3Cc2c(F)cccc2Cl)C1,"inconclusive: 1.26 µM [inhibitor, full curve, poor fit]",,
Cc1cc(C)n(Cc2cccc(C(=O)N3CCC4(CC3)[C@H](O)C[C@@H]4O)c2)n1,inactive,,
Cc1ccc(NC(=O)CSc2nc3n[nH]c(C)c3c(=N)n2-c2cccc(C)c2)cc1,"inconclusive: 3.55 µM [inhibitor, full curve, poor fit]",,
Cc1cc(Nc2cccc(Cl)c2)nc2ccc(NC(=O)c3cccnc3)cc12,"inconclusive: 3.16 µM [inhibitor, full curve, poor fit]",,
Cc1ccccc1CN1CCC2(CC1)COCCN2C(=O)OCc1ccccc1,"inconclusive: 10 µM [inhibitor, partial curve]",,
CN1[C@H](C(=O)O)C[C@H](C(=O)NCC(C)(C)CO)[C@@H]1c1cccc(F)c1F,inactive,,
CCCSCCCNC(=O)c1ccc2nc(Cc3ccccc3)oc2c1,"inconclusive: 11.2 µM [inhibitor, partial curve, poor fit]",,
CCn1cc(S(=O)(=O)N2CC[C@H]3C(=O)NCCCCCCN(Cc4ccncc4)[C@@H]3C2)cn1,inactive,,
C=CCN1CC2(CCC1=O)CCN(C(=O)CC(C)n1ccnc1C)CC2 (stereo not drawn),inactive,,
Cn1nc(-c2ccc(C(=O)Nc3ccc(F)cc3)cc2)c2ccccc2c1=O,"inconclusive: 12.6 µM [inhibitor, single point]",,

SMILES,Potency,outcome,"activity, negative = inhibition"
CCC1Oc2ccc(NC(=O)C3CC3)cc2CN(Cc2cc(F)cc(F)c2)C1=O (stereo not drawn),inactive,,
C=CCN1CC(C(=O)NCc2cccnc2Oc2ccc(C)nc2)CC1=O (stereo not drawn),inactive,,
Cn1ccnc1C(=O)N1CCC(C2CCN(S(C)(=O)=O)CC2)C1 (stereo not drawn),inactive,,
COCCC(=O)Nc1ccc2c(c1)CCC(=O)N2C,inactive,,
Cc1ccc(NC(=O)CSc2nc3c(oc4ccccc43)c(=O)n2-c2ccc(F)cc2)c(C)c1,"inconclusive: 10 µM [inhibitor, single point]",,
O=C(c1ccc(-c2ncc3cnc(-c4ccccc4)cn23)cc1)N1CCc2cccnc21,"inconclusive: 2 µM [inhibitor, partial curve]",,
O=C(NCc1ccccn1)C1CC(=O)N(c2n[nH]c3cccc(F)c23)C1 (stereo not drawn),inactive,,
COCCN(Cc1nccs1)C(=O)c1cnc(-c2ccccn2)[nH]c1=O,"inconclusive: 11.2 µM [inhibitor, single point]",,
CCC(CC)c1cc([C@H]2CN3CC[C@H]2C[C@@H]3CNC(=O)Nc2ccc(C(C)=O)cc2)nc(-c2ccncc2)n1,"inconclusive: 1 µM [inhibitor, partial curve, poor fit]",,
Cc1ccc2c(c1)N1C(=O)OC[C@@H]1CCN(Cc1cccnc1)C2,inactive,,
O=c1c(S(=O)(=O)c2ccccc2)cn(Cc2ccccc2)c2cc(N3CCOCC3)c(F)cc12,active: 8.91 µM,,
O=Cc1cccc(N2CCN(C(=O)NC3CCCCC3)CC2=O)c1,inactive,,
Cn1c(CNC(=O)C2Cn3cccc3C(=O)N2Cc2ccccc2)nc2ccccc21 (stereo not drawn),inactive,,
COc1ccc(CN2CC3(CCN(C(=O)Nc4ccc(OC)c(F)c4)CC3)C2=O)cc1,"inconclusive: 1.12 µM [inhibitor, full curve, poor fit]",,
Cc1ccc(C2Cn3nnc(-c4nc(-c5ccccc5Cl)no4)c3CO2)c(C)c1 (stereo not drawn),inactive,,
O=[S+]([O-])(c1ccccc1)N1CC(N2CCc3ccccc32)C1,,,inconclusive: -48.3% [inhibitor]
O=C(c1cccnc1)N1CC(Oc2ccc(-c3noc(-c4ccccc4)n3)cc2)C1,"inconclusive: 12.6 µM [inhibitor, partial curve, poor fit]",,
COCC(=O)Nc1ccc2c(c1)CN(Cc1ccc(Cl)cc1)C(=O)C(C)O2 (stereo not drawn),inactive,,
CC(C)OCCCNC(=O)c1cc2c(-c3ccc(Cl)cc3)nn(C)c2s1,"inconclusive: 10 µM [inhibitor, single point]",,
CCCC(=O)N1CCC(N2C(=O)C3(CCCCC3)C2c2ccccc2)CC1 (stereo not drawn),"inconclusive: 10 µM [inhibitor, single point]",,
CCc1ccc(CN2CCCCC23Cc2ccccc2CNC3=O)cc1 (stereo not drawn),"inconclusive: 20 µM [inhibitor, single point]",,
COc1ccc(-c2ccnc3nc(-c4ccccc4OC)nn23)cc1OC,"inconclusive: 12.6 µM [inhibitor, single point]",,
